Here are results for 24 compounds from article PMC4336329 (PLoS ONE, 2015).

Hit rate of the full screen: of about 310,000 compounds, about 14,000 (4.5%) showed an effect of 50% or more. The effect is printed as a negative number. The list shows a part of the results.
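Also: peak tail current of the secondary pulse compared with the same well before compound.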

For this test, the target named is human ether-à-go-go-related gene (hERG) potassium channel (human, UniProt Q12809). Kind of test: primary screen, population patch clamp on CHO cells stably expressing hERG.
human ether-à-go-go-related gene (hERG) potassium channel, sequence (Q12809 whole entry, looked up): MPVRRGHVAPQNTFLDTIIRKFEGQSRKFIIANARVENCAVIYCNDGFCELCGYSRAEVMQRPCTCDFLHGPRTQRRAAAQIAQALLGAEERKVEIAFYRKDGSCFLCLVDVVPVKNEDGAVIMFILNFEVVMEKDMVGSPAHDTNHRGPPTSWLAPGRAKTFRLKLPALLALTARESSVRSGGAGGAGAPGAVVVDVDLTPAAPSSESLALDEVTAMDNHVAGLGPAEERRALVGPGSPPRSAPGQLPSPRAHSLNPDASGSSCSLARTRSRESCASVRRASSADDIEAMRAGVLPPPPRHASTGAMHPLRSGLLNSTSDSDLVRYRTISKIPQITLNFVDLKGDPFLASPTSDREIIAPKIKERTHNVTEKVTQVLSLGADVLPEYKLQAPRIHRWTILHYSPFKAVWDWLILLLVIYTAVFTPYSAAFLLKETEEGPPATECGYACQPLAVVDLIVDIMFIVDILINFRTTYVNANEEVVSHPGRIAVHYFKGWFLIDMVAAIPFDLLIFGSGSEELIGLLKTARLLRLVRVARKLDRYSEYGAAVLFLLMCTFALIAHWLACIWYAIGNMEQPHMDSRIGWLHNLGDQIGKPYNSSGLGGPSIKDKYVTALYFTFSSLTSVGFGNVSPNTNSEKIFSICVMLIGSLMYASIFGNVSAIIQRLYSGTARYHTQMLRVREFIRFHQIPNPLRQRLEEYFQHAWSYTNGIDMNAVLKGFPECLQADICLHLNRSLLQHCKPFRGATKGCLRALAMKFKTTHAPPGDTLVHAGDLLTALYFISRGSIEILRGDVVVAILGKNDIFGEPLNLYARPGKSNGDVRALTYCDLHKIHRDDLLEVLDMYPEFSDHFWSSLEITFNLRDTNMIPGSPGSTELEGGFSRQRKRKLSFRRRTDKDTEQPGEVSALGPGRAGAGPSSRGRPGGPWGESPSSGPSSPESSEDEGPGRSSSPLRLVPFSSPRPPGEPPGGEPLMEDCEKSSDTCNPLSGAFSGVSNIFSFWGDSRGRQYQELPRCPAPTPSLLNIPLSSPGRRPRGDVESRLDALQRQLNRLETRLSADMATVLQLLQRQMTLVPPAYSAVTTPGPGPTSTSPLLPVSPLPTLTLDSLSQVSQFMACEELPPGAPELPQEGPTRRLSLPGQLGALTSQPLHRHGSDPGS
For `CCCCn1c(N)c(N(CC(C)C)C(=O)CSCC(=O)Nc2ccc(C)cc2)c(=O)[nH]c1=O`, the “hERG current change (%, negative = inhibition) at 10uM” value came out at 16.6%. The figure for `COc1ccc(CCN(Cc2cccs2)S(=O)(=O)c2ccc(-n3cnnn3)c(OC)c2)cc1OC` is 10.4%. Regarding `CCn1cc(C(=O)N[C@@H](C)C(=O)OC)c(=O)c2cc3c(cc21)OCO3`, the “hERG current change (%, negative = inhibition) at 10uM” value is recorded as -3.85%. For `Cc1c(NC(=O)Cc2cccs2)cccc1[N+](=O)[O-]`, the “hERG current change (%, negative = inhibition) at 10uM” value came out at 12.8%. For the compound `CC(=O)N=c1sc2nc3ccccc3nc2n1N(C(C)=O)C(C)=O`, the “hERG current change (%, negative = inhibition) at 10uM” value is reported as 26.3%. Turning to `OCC1(Cc2ccccc2)CCN(Cc2cnc(-c3cccc4ccccc34)nc2)CC1`, the “hERG current change (%, negative = inhibition) at 10uM” value is listed as 10.8%. The figure for `Cn1c(=O)c2c(nc(SCC(=O)O)n2Cc2cc3c(cc2Cl)OCO3)n(C)c1=O` is 6.88%; for `CC(C)NC(=O)c1cc(-c2ccco2)nn1-c1ccc(Cl)cc1` it is -27.4%. Regarding `CCOCCCNC(=O)NC12CC3CC(CC(C3)C1)C2`, the “hERG current change (%, negative = inhibition) at 10uM” value is listed as 13.5%. Consider `COc1ccc(NC(=O)CC2CCCC2)cc1S(=O)(=O)N1CCCCC1`, for which the “hERG current change (%, negative = inhibition) at 10uM” value is -35.8%. For the compound `O=C(CNC(=O)c1ccc([N+](=O)[O-])cc1)N/N=C/c1c[nH]c2ccccc12`, the “hERG current change (%, negative = inhibition) at 10uM” value stood at 4.16%. The figure for `CC(=O)Nc1cc2c3c(c1)CCC(=O)N3CCC2` is 20.3%; for `COc1ccc(CC/C(C)=N\NC(N)=O)cc1` it is 14.2%. As for `CCCC(=O)Nc1nc(-c2ccccc2)c(CC)s1`, the “hERG current change (%, negative = inhibition) at 10uM” value was 0.584%. On to `COc1ccc(S(=O)(=O)c2c(C)c(NS(=O)(=O)c3ccccc3)cc(C)c2O)cc1`, for which the “hERG current change (%, negative = inhibition) at 10uM” value worked out at 11.1%. The figure for `Cc1ccc([C@@H]2[C@@H]3C(=O)N(C)C(=O)[C@@H]3[C@]3(Cc4ccccc4)C(=O)N(Cc4ccccn4)CC(=O)N23)o1` is 16.8%; for `CN1CCN(S(=O)(=O)c2cccc(C(=O)Nc3ccccc3N3CCOCC3)c2)CC1` it is 1.78%. Consider `COc1ccc(S(=O)(=O)N2CCOCC2)cc1OC`, for which the “hERG current change (%, negative = inhibition) at 10uM” value is recorded as 0.287%. The figure for `O=C(OCc1ccc2c(c1)OCO2)c1ccc(S(=O)(=O)N2CCCC2)cc1` is -12.7%. The figure for `CCC(=O)N1c2ccc(S(=O)(=O)N3CCN(C)CC3)cc2CC1C` (stereo not drawn) is 7.54%; for `Cc1ccc(/C=C2\SC(=S)N(CC(=O)Nc3cccnc3)C2=O)cc1` it is 19.4%; for `O=C1NC(c2cccc(Cl)c2)Oc2ccccc21` (stereo not drawn) it is 15.8%. The figure for `CN1C(=O)c2ccccc2C(C(=O)O)C1c1cccc([N+](=O)[O-])c1` (stereo not drawn) is 24.4%; for `Cc1ccc(C)c(N2CCN(C(=O)c3ccc(N4CCCC4=O)cc3)CC2)c1` it is -37.2%.
